Data reported in the antibiotic and cytotoxicity screens of Wong et al. (2023).
The other results are listed elsewhere or left out.

What was measured:
HSkMC = human skeletal muscle cells; assay: cytotoxicity call (relative viability < 0.9); conditions: 10 µM
HepG2 = assay: cytotoxicity call (relative viability < 0.9); conditions: 10 µM
S. aureus RN4220 = assay: growth inhibition call (relative growth <= 0.2); conditions: 50 µM

SMILES	cytotoxicity call (HSkMC)	cytotoxicity call (HepG2)	growth inhibition call (S. aureus RN4220)
COc1ccc(NC(=O)N(C)C[C@@H]2Oc3c(NC(=O)C4CC4)cccc3C(=O)N([C@H](C)CO)C[C@@H]2C)cc1	inactive	inactive	inactive
COCCNC(=O)C[C@H]1C[C@H]2c3cc(NC(=O)Nc4ccc(C(F)(F)F)cc4)ccc3O[C@H]2[C@@H](CO)O1	inactive	inactive	inactive
CC(C)NC(=O)Nc1cccc2c1O[C@@H](CN(C)C(=O)NC1CCCCC1)[C@H](C)CN([C@H](C)CO)C2=O	inactive	inactive	inactive
COc1ccc(NC(=O)Nc2ccc3c(c2)C(=O)N([C@H](C)CO)C[C@H](C)[C@H](CN(C)Cc2ccccc2)OCCCC[C@H](C)O3)cc1	inactive	active	inactive
CN1C[C@@H]2CN(C(=O)c3ccnn3C)C[C@H]2C1=O	inactive	inactive	inactive
Cc1ccc(S(=O)(=O)Nc2cccc3c2O[C@H](CN(C)S(C)(=O)=O)[C@@H](C)CN([C@H](C)CO)C3=O)cc1	inactive	inactive	inactive
CC(C)CC#Cc1ccc2c(c1)O[C@H](CN(C)C(=O)NC1CCCC1)[C@@H](C)CN([C@@H](C)CO)S2(=O)=O	inactive	inactive	inactive
CC=NN(C)C=O	inactive	inactive	inactive
COc1cc(Cc2cc3c(c(CCc4ccccc4)n2)[Si](C(C)C)(C(C)C)O[C@H]3c2ccccc2)cc(OC)c1OC	inactive	inactive	active
C[C@@H]1CCCCO[C@H](CN(C)C(=O)Nc2ccc(F)cc2)[C@H](C)CN([C@H](C)CO)C(=O)c2cc(NC(=O)Nc3ccc(C(F)(F)F)cc3)ccc2O1	inactive	inactive	inactive
O=C1O[C@H](c2ccccc2)[C@H](c2ccccc2)N2[C@H]1[C@@H](C(=O)O)[C@]1(C(=O)Nc3ccc(C#CC4=CCCCC4)cc31)[C@H]2c1ccccc1OCCO	inactive	active	active
C[C@H](CO)N1C[C@H](C)[C@@H](CN(C)S(C)(=O)=O)Oc2ccc(NC(=O)CCCCCC(=O)Nc3ccccc3N)cc2CC1=O	inactive	inactive	inactive
CN[C@@H]1[C@@H](O[C@@]2(C)O[C@H](CO)[C@@H](N)[C@H](O)[C@H]2O)O[C@H]2C[C@@H](N)[C@@H](O[C@H]3[C@H](O)[C@@H](O)[C@H](N)C[C@@H]3N)O[C@@H]2[C@@H]1O	inactive	inactive	inactive
Cc1ccc(S(=O)(=O)N(C)C[C@H]2Oc3ccc(NS(=O)(=O)c4cccs4)cc3C(=O)N([C@@H](C)CO)C[C@H]2C)cc1	inactive	inactive	inactive
COc1ccc(S(=O)(=O)Nc2ccc3c(c2)C(=O)N([C@H](C)CO)C[C@@H](C)[C@@H](CN(C)Cc2ccc(Cl)c(Cl)c2)OCCCC[C@H](C)O3)cc1	active	inactive	inactive
COc1ccc(-c2cnc3c(c2)C(=O)N([C@H](C)CO)C[C@@H](C)[C@H](CN(C)S(=O)(=O)c2ccc(OC)cc2)O3)cc1	inactive	inactive	inactive
Cc1ccc(S(=O)(=O)Nc2ccc3c(c2)C(=O)N([C@H](C)CO)C[C@H](C)[C@@H](CN(C)Cc2ccccc2)OCCCC[C@H](C)O3)cc1	inactive	inactive	inactive
CO[C@H](CN(C)C(=O)Nc1ccc(C(F)(F)F)cc1)[C@@H](C)CN(Cc1ccccc1Cl)[C@H](C)CO	inactive	inactive	inactive
COc1ccc(NC(=O)N(C)C[C@@H]2OCCCC[C@@H](C)Oc3ccc(NC(=O)C4CCCCC4)cc3C(=O)N([C@@H](C)CO)C[C@@H]2C)cc1	inactive	inactive	inactive
Cc1ccc(S[C@]2(C(=O)NCC(C)C)CC(=O)N(Cc3ccccc3C(F)(F)F)[C@@H]2c2ccc(CO)cc2I)cc1	inactive	inactive	inactive
C[C@@H]1CN([C@H](C)CO)C(=O)c2cc(NC(=O)Cn3cnnn3)ccc2O[C@@H]1CN(C)Cc1ccc(C(=O)O)cc1	inactive	inactive	inactive
C[C@@H]1CCCCO[C@@H](CN(C)Cc2ccc(Cl)c(Cl)c2)[C@@H](C)CN([C@H](C)CO)C(=O)c2cc(NC(=O)Nc3ccc4c(c3)OCO4)ccc2O1	inactive	inactive	inactive
N=C1SCCN1CC(=O)O	inactive	inactive	inactive
O=C1COC2(CCN(C(=O)C3CCOCC3)CC2)CN1	inactive	inactive	inactive
C[C@@H]1CCCCO[C@@H](CN(C)Cc2ccc(C(=O)Nc3ccccc3N)cc2)[C@@H](C)CN([C@H](C)CO)C(=O)c2cc(NC(=O)c3ccccc3)ccc2O1	inactive	active	inactive
